# Reference: the supplement of paper PMC3334620
# In all, about 33,000 sequences were measured (“E-score (-0.5 to 0.5)”: median about -0.017, highest 2% from about 0.3 on). The list shows a part of the results.
# Molecular target: T1, Sut1 (UniProt P53032)
# T1 sequence: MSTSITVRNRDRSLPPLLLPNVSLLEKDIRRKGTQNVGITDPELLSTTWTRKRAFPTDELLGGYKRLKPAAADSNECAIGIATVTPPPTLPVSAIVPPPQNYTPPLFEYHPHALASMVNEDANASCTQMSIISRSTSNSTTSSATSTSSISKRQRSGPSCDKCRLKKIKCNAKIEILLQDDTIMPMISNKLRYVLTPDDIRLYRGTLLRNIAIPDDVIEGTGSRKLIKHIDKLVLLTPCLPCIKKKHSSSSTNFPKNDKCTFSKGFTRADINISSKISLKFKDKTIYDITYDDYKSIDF
# Experiment: PBM E-score (8-mer binding enrichment) (E-score (-0.5 to 0.5)); higher = stronger / more preferred TF binding; most listed sequences are background and not binding sites
# Details: protein concentration: 200 nM; construct: GST-full length
# Procedure: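 Universal 'all 10-mer' protein binding microarrays (Agilent AMADID 015681) probed with GST-tagged S. cerevisiae TFs (full-length or DBD) made by in vitro transcription/translation (PURExpress), about 100-200 nM. Bound TF was detected with fluorescent anti-GST. Each ungapped 8-mer (which stands for itself and its reverse complement) is scored by the PBM enrichment score (E-score), a modified Wilcoxon-Mann-Whitney statistic from -0.5 to +0.5, computed with the Universal PBM Analysis Suite. Scale: above 0.35 generally sequence-specific binding.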
row,Sequence,PBM E-score
1,AGTGGACA,0.0387
2,CCTTTGGC,-0.324
3,ATCTAGCG,-0.0758
4,CACCTCCG,0.194
5,CGAATTTC,0.294
6,CACTAGAA,-0.0449
7,AGGGGCAC,-0.297
8,GTCCGAAC,0.397
9,CGCGTATA,-0.0789
10,CGGATTAA,0.134
11,CCGTGGAC,-0.0896
12,CACAAACG,0.127
13,GCAACTAC,0.0638
14,CGAGGAGC,-0.0993
15,TAGAACAA,0.056
16,GTTACCGA,-0.0528
17,CTCTATGC,-0.131
18,CACGACTA,-0.255
19,GCTAGCCA,-0.263
20,CACGGGCC,-0.215
21,AACAACTA,0.26
22,TCCAGCGA,-0.0484

row,Sequence,PBM E-score
1,ACTCCTAT,0.0886
2,CACCGTAG,-0.0954
3,CGGGTACA,-0.0947
4,CGCCCGCG,-0.188
5,CGTTGGTC,0.037
6,CCTTTCGC,-0.0895
7,GGCCTATA,-0.236
8,CCATCGCA,-0.183
9,CTACTCTC,-0.0287
10,ATACGCTC,0.0983
11,AGTGCGGC,-0.0836
12,AATTTTAG,0.0313
13,CAAGTCGC,-0.294
14,CCATCTCA,-0.197
15,ACCTTCAA,0.0614
16,ACGAGCAC,0.058
17,AGAAATTG,0.268
18,GTATCATA,0.241
19,CTGGACTC,0.0665
20,AAGCCTTC,-0.11
21,CGGTGAAG,-0.174
22,ACGTCAGA,-0.193

row,Sequence,PBM E-score
1,ATAGCCCC,-0.325
2,GCCAAGCA,-0.237
3,CAGATCAA,-0.271
4,CCATCAAA,0.0607
5,GCACACGC,-0.227
6,AAATAACA,0.204
7,CTAATACA,0.228
8,GATACGGC,-0.104
9,TAATCTAA,0.236
10,CCAGAAGC,-0.144
11,CCTTCCCA,-0.0931
12,AGTGGGAT,0.0335
13,AAGACCCA,-0.199
14,GTGTGGTA,0.0338
15,GTGCTCGA,-0.0737
16,AAACGCAA,0.162
17,GAGCATCC,-0.069
18,CGCAATAC,-0.0615
19,AGTGCAAC,0.00453
20,GTGGTGCA,-0.0425
21,GCCGATCC,-0.192
22,GCCAAATA,0.0459

row,Sequence,PBM E-score
1,AACCAGAC,-0.226
2,CCATCTGC,-0.0237
3,ATACGGCC,0.0623
4,CGGACATA,0.433
5,CCCCATCG,-0.0507
6,GAGATGAC,0.0248
7,GGTCGATA,-0.0842
8,CGACTCCA,-0.132
9,TATTAGCA,0.21
10,ACATGCAC,-0.0846
11,GACAGCCC,-0.261
12,CCGTAGGC,-0.11
13,GTCACCGA,-0.151
14,CTGATTAC,0.0972
15,GGATAGTA,0.246
16,CTAGGGAA,-0.0592
17,CTATTGGA,0.16
18,CTCGACAC,-0.208
19,CGTTGGTA,0.0587
20,CTGTATTA,0.149
